# Test results taken from the supplement of paper PMC3334620.
# In all, about 33,000 sequences were measured (“E-score (-0.5 to 0.5)”: median about -0.054, highest 2% from about 0.35 on). This is one part of the list.
# Target: T1, Stb5 (UniProt P38699)
# T1 sequence: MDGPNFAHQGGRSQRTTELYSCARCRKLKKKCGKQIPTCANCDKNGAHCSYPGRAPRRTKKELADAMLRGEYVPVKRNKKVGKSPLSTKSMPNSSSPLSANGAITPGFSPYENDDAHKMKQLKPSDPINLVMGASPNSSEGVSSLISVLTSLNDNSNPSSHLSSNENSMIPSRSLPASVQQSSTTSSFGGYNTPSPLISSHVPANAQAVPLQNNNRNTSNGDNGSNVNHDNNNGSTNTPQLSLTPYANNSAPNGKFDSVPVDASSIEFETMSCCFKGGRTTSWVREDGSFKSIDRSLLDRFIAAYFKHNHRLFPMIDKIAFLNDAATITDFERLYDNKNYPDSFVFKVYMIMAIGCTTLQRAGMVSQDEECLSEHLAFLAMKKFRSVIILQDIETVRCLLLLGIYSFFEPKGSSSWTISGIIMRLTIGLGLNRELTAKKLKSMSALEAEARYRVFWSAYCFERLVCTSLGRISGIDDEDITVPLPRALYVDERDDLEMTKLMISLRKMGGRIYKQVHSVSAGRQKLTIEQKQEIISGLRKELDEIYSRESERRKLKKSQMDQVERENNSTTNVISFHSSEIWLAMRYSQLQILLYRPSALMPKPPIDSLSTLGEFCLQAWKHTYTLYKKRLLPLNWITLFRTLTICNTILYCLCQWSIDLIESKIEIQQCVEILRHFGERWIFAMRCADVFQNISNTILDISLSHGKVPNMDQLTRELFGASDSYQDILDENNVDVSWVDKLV
# Experiment: PBM E-score (8-mer binding enrichment) (E-score (-0.5 to 0.5)); higher = stronger / more preferred TF binding; most listed sequences are background and not binding sites
# Conditions: protein concentration: 200 nM; construct: GST-full length
# Method in brief: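 PURExpress in vitro transcription/translation supplied GST-tagged yeast transcription factors, either full-length or DNA-binding domain. Applied at about 100-200 nM to universal all-10-mer Agilent arrays double-stranded by primer extension, the bound protein was detected with fluorescent anti-GST. E-scores, modified Wilcoxon-Mann-Whitney statistics, were given by the Universal PBM Analysis Suite to ungapped eight-base words pooled with their reverse complements after masliner normalisation.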
row,Sequence,PBM E-score
1,ACGTCCAC,-0.156
2,AGCAGTCG,0.0526
3,AAAGGTAT,0.0224
4,AGCCACCC,-0.0205
5,ACCGAAAT,0.223
6,AGCATAAA,0.0761
7,GAACCAAA,-0.212
8,CAACTAAG,-0.0736
9,GCTGCGCC,-0.0775
10,CAAGTCTC,-0.223
11,CAGCTGCA,-0.111
12,TTACGTAA,-0.263
13,AGCCCTTC,-0.213
14,TCTGGGCA,0.115
15,ACAAACAG,0.00671
16,AGCCGACT,0.149
17,CGCGCCGA,0.277
18,CCCGGCCA,0.182
19,GATAAGAA,-0.0257
20,TGAAGACA,-0.105
21,AGCCGTAC,-0.00301
22,CGAGCATC,-0.0291
23,AGAACGAA,-0.0966
24,GGTGCTCA,0.0877
25,CGGACCGC,0.298

row,Sequence,PBM E-score
1,AATCTAGA,-0.0895
2,AGAAGCAC,-0.0713
3,ATCTAACG,0.118
4,AGTAGGAC,-0.0741
5,ACGTTAAG,0.127
6,ACTGATAG,-0.269
7,TGCCACCA,-0.338
8,CGGATACC,0.0377
9,ACCTAAGC,-0.0629
10,CGTTCTCC,-0.133
11,AGATCAGA,-0.298
12,CGCTTAAC,0.0488
13,CAGACGAG,-0.199
14,CCGCGCAG,0.248
15,CCGTATCG,0.154
16,CCGTCGTC,0.161
17,ATTCGCGC,-0.0553
18,GGGCCACA,-0.0815
19,ATTGAATG,-0.126
20,GACCGATC,0.323
21,AAGGTCCA,-0.171
22,GTGTTGAA,-0.206
23,CATAGGTC,0.0421
24,GGGCCCCA,-0.0142
25,AGAAGCCC,0.197

row,Sequence,PBM E-score
1,CGCAGACG,0.00145
2,AGTCCTCA,0.0201
3,ATCCTGCA,-0.17
4,CAAGTACG,-0.21
5,AGATACCG,0.331
6,ACGTAGGC,-0.103
7,ACCTTAGG,-0.0614
8,GGCGTTAC,0.248
9,ACGAAGGG,-0.187
10,TACTTTCA,-0.124
11,CCGTCACA,0.226
12,CAATCGTC,-0.093
13,CTTACATA,0.0352
14,AACCTATC,-0.0635
15,AAAGCTCT,-0.161
16,AGCGGAGG,0.239
17,CTTGGCTC,-0.143
18,CCCCCTTA,-0.332
19,AGCTTGAC,-0.251
20,GAATCACA,0.174
21,CCCTACTC,0.0096
22,AGTGACAC,-0.0727
23,AATCTACA,-0.0744
24,AGTTAACC,0.0236
25,AGGAGCAT,-0.255

row,Sequence,PBM E-score
1,CGAGACGC,0.0341
2,AATACATT,-0.253
3,CGCATAGA,-0.0293
4,CACTTGAA,-0.272
5,AAACGCTT,-0.294
6,TCTTAACA,-0.0361
7,TATGGCGA,-0.128
8,CCCGATGA,0.226
9,ATAGAGAA,-0.142
10,ACAGGCAC,-0.106
11,CAGTCAAA,-0.207
12,CTAATCGA,-0.131
13,ACTCTGAA,-0.0962
14,AATACCGA,0.415
15,CGTGACTA,-0.0676
16,CAATGCAG,-0.109
17,AGCGCAGC,-0.0781
18,CTTACAGA,-0.093
19,AGATAAGA,-0.0432
20,AACACTCT,-0.137
21,CCCTGCGG,0.153
22,AAAAGTGG,-0.0292
23,ACAATGTC,-0.0176
24,AGTACTAT,-0.157
25,CCAAATGC,-0.205

row,Sequence,PBM E-score
1,ATTACTCA,-0.176
2,ACTATGCC,0.0989
3,TCGGGTCA,0.111
4,CGCTATAA,0.117
5,AAGCGTGT,-0.272
6,AGTTGTTA,-0.177
7,ATCCGCCG,0.285
8,AGCCAGTG,-0.181
9,GCCAAGTA,-0.0653
10,CGCTACTA,0.309
11,GCACGAAA,-0.0974
12,GCGCTGTA,0.134
13,ATTCGTGA,-0.182
14,ACATTGCG,-0.0644
15,AACACCCA,-0.0193
16,GACAATGA,-0.174
17,ATCATATC,0.0529
18,ATAGAGAT,-0.185
19,GAGTGCCA,-0.217
20,GCAGCCGA,-0.0391
21,ATCAACGA,0.0713
22,TATAATCA,0.0875
23,CAGGACAC,-0.00641
24,AAATATAT,0.118
25,AACAACCG,0.199

row,Sequence,PBM E-score
1,CAAGAATC,0.0759
2,CGCAAAAA,-0.126
3,TGCTGACA,-0.161
4,ACAGTATG,-0.121
5,AGTCCACA,-0.0556
6,AGCGCCTC,-0.0428
7,CACTTCCA,-0.171
8,ACCCCACT,-0.167
9,CATATAAC,0.166
10,CGGGTTCA,0.278
11,AAATGTAT,-0.0191
12,CAAGCCGA,0.0344
13,GGTCTTCA,-0.0128
14,AAGCACAG,-0.00662
15,AACATTAT,-0.0823
16,CAGATGTA,-0.12
17,GGGGATAA,0.345
18,AAAGCAAC,0.0355
19,AACAGTCG,0.0404
20,TCTAGCCA,-0.123
21,CCCTTCGC,-0.186
22,ACTCCGGG,0.327
23,CAAAGGGA,-0.175
24,TGCGTTAA,-0.101
25,CCGGGCCC,0.252

row,Sequence,PBM E-score
1,AGTACCAA,-0.0864
2,AGCACGTC,-0.0966
3,ACGGCGGA,0.278
4,CACGGTTA,0.118
5,CAAATTCC,0.0596
6,CCATAGAA,-0.0923
7,AACATCAC,-0.246
8,GGAATCGA,-0.0801
9,TTACAGAA,-0.253
10,GTATCACA,-0.0755
11,AGTCGTGG,-0.087
12,GAACAAAC,0.0428
13,ATACACAC,-0.094
14,TTGGTAAA,0.0329
15,GAATCGCC,0.243
16,CCCGTGAA,0.0202
17,AGGCTTCC,-0.303
18,CGGATGTA,0.381
19,AGGAGGCA,-0.174
20,TGATCTAA,-0.176
21,GTAGAAAA,-0.144
22,AGCCGATA,0.0102
